Measurements: EPA's CvTdb concentration-time database
This continues a long series; more values of the same kind are listed elsewhere.

Tests used:
Assay in all cases: concentration in plasma after dosing
[1] = tested on: Rat; settings: dosed: 2-Hydroxy-4-methoxybenzophenone, 8 mg/kg, iv, Male, F344
[2] = tested on: Mouse; settings: 1 h; dosed: 2-Hydroxy-4-methoxybenzophenone; 500 mg/kg; oral; Male; B6C3F1
[3] = tested on: Rat; settings: dosed: 2-Hydroxy-4-methoxybenzophenone, 100 mg/kg, oral, Female, F344
[4] = tested on: Mouse; settings: 10 h; dosed: 2-Hydroxy-4-methoxybenzophenone; 500 mg/kg; oral; Male; B6C3F1
[5] = tested on: Mouse; settings: 4 h; dosed: 2-Hydroxy-4-methoxybenzophenone; 50 mg/kg; iv; Female; B6C3F1
[6] = tested on: Rat; settings: 16 h; dosed: 2-Hydroxy-4-methoxybenzophenone; 500 mg/kg; oral; Male; F344
[7] = tested on: Mouse; settings: dosed: 2-Hydroxy-4-methoxybenzophenone, 100 mg/kg, oral, Female, B6C3F1
[8] = tested on: Mouse; settings: 5 h; dosed: 2-Hydroxy-4-methoxybenzophenone; 250 mg/kg; oral; Male; B6C3F1
[9] = tested on: Mouse; settings: 1 h; dosed: 2-Hydroxy-4-methoxybenzophenone; 250 mg/kg; oral; Male; B6C3F1
[10] = tested on: Rat; settings: dosed: 2-Hydroxy-4-methoxybenzophenone, 250 mg/kg, oral, Male, F344
[11] = tested on: Rat; settings: 16 h; dosed: 2-Hydroxy-4-methoxybenzophenone; 500 mg/kg; oral; Male; F344; remark: listed apart in the source
[12] = tested on: Mouse; settings: 4 h; dosed: 2-Hydroxy-4-methoxybenzophenone; 50 mg/kg; iv; Female; B6C3F1; remark: listed apart in the source
[13] = tested on: Mouse; settings: 1 h; dosed: 2-Hydroxy-4-methoxybenzophenone; 250 mg/kg; oral; Female; B6C3F1
[14] = tested on: Rat; settings: dosed: 2-Hydroxy-4-methoxybenzophenone, 250 mg/kg, oral, Female, F344
[15] = tested on: Rat; settings: dosed: Perfluorohexanoic Acid, 40 mg/kg, Male, F344
[16] = tested on: Rat; settings: dosed: Perfluorohexanoic Acid, 160 mg/kg, oral, Male, Harlan Sprague Dawley
[17] = tested on: Rat; settings: dosed: Perfluorohexanoic Acid, 160 mg/kg, oral, Male, Harlan Sprague Dawley; remark: listed apart in the source
[18] = tested on: Rat; settings: dosed: Perfluorohexanoic Acid, 40 mg/kg, Male, F344; remark: listed apart in the source
[19] = tested on: Rat; settings: 1 h; dosed: Perfluorohexanoic Acid; 40 mg/kg; Female; Harlan Sprague Dawley
[20] = tested on: Rat; settings: 12 h; dosed: Perfluorohexanoic Acid; 80 mg/kg; oral; Female; Harlan Sprague Dawley
[21] = tested on: Rat; settings: dosed: Perfluorohexanoic Acid, 80 mg/kg, oral, Female, Harlan Sprague Dawley
[22] = tested on: Rat; settings: dosed: Perfluorohexanoic Acid, 40 mg/kg, Male, F344; remark: listed apart in the source
[23] = tested on: Mouse; settings: 1 h; dosed: 2-Hydroxy-4-methoxybenzophenone; 250 mg/kg; oral; Male; B6C3F1; remark: listed apart in the source
[24] = tested on: Rat; settings: 4 h; dosed: 2-Hydroxy-4-methoxybenzophenone; 500 mg/kg; oral; Female; F344
[25] = tested on: Mouse; settings: 2.5 min; dosed: 2-Hydroxy-4-methoxybenzophenone; 500 mg/kg; oral; Female; B6C3F1
[26] = tested on: Mouse; settings: 4 h; dosed: 2-Hydroxy-4-methoxybenzophenone; 500 mg/kg; oral; Male; B6C3F1
[27] = tested on: Mouse; settings: 5 min; dosed: 2-Hydroxy-4-methoxybenzophenone; 250 mg/kg; oral; Male; B6C3F1
[28] = tested on: Mouse; settings: 0.5 h; dosed: 2-Hydroxy-4-methoxybenzophenone; 50 mg/kg; iv; Male; B6C3F1
[29] = tested on: Mouse; settings: 1.5 h; dosed: 2-Hydroxy-4-methoxybenzophenone; 250 mg/kg; oral; Male; B6C3F1
[30] = tested on: Mouse; settings: 5 h; dosed: 2-Hydroxy-4-methoxybenzophenone; 250 mg/kg; oral; Female; B6C3F1
[31] = tested on: Mouse; settings: 16 h; dosed: 2-Hydroxy-4-methoxybenzophenone; 50 mg/kg; iv; Male; B6C3F1
[32] = tested on: Mouse; settings: 16 h; dosed: 2-Hydroxy-4-methoxybenzophenone; 500 mg/kg; oral; Male; B6C3F1
[33] = tested on: Mouse; settings: 0.5 h; dosed: 2-Hydroxy-4-methoxybenzophenone; 250 mg/kg; oral; Female; B6C3F1
[34] = tested on: Mouse; settings: 5 h; dosed: 2-Hydroxy-4-methoxybenzophenone; 250 mg/kg; oral; Male; B6C3F1; remark: listed apart in the source
[35] = tested on: Mouse; settings: 10 h; dosed: 2-Hydroxy-4-methoxybenzophenone; 500 mg/kg; oral; Female; B6C3F1
[36] = tested on: Mouse; settings: 5 min; dosed: 2-Hydroxy-4-methoxybenzophenone; 50 mg/kg; iv; Female; B6C3F1
[37] = tested on: Mouse; settings: 4 h; dosed: 2-Hydroxy-4-methoxybenzophenone; 250 mg/kg; oral; Male; B6C3F1

COc1ccc(C(=O)c2ccccc2)c(O)c1 [2-Hydroxy-4-methoxybenzophenone]
concentration in plasma ([1]; 1.5 h): 123 ng/mL
concentration in plasma ([1]; 12 h): 10.8 ng/mL
concentration in plasma [2]: 117 ng/mL
concentration in plasma ([3]; 0.5 h): 92.5 ng/mL
concentration in plasma ([3]; 5 h): 6.28 ng/mL
concentration in plasma [4]: 30.2 ng/mL
concentration in plasma [5]: 129 ng/mL
concentration in plasma [6]: 28.5 ng/mL
concentration in plasma ([7]; 5 min): 55.5 ng/mL
concentration in plasma ([7]; 0.5 h): 51.5 ng/mL
concentration in plasma ([7]; 0.75 h): 23 ng/mL
concentration in plasma ([7]; 1 h): 19.4 ng/mL
concentration in plasma ([7]; 1.5 h): 14.3 ng/mL
concentration in plasma ([7]; 4 h): 16.3 ng/mL
concentration in plasma ([7]; 5 h): 6.12 ng/mL
concentration in plasma ([7]; 6 h): 28.3 ng/mL
concentration in plasma [8]: 18.6 ng/mL
concentration in plasma [9]: 125 ng/mL
concentration in plasma ([10]; 1.5 h): 316 ng/mL
concentration in plasma ([10]; 8 h): 22.9 ng/mL
concentration in plasma [11]: 263 ng/mL
concentration in plasma [12]: 115 ng/mL
concentration in plasma [13]: 118 ng/mL
concentration in plasma ([14]; 0.5 h): 453 ng/mL
concentration in plasma ([14]; 10 h): 11.7 ng/mL

O=C(O)C(F)(F)C(F)(F)C(F)(F)C(F)(F)C(F)(F)F [Perfluorohexanoic Acid]
concentration in plasma ([15]; 0.25 h): 176000 ng/mL
concentration in plasma ([15]; 6 h): 1190 ng/mL
concentration in plasma ([16]; 1 h): 223000 ng/mL
concentration in plasma ([16]; 24 h): 3440 ng/mL
concentration in plasma ([17]; 1 h): 215000 ng/mL
concentration in plasma ([17]; 24 h): 1700 ng/mL
concentration in plasma ([18]; 5 min): 253000 ng/mL
concentration in plasma ([18]; 3 h): 736 ng/mL
concentration in plasma [19]: 25500 ng/mL
concentration in plasma [20]: 484 ng/mL
concentration in plasma ([21]; 0.25 h): 79700 ng/mL
concentration in plasma ([21]; 24 h): 33.1 ng/mL
concentration in plasma ([22]; 5 min): 285000 ng/mL
concentration in plasma ([22]; 3 h): 830 ng/mL

O=C(c1ccccc1)c1ccc(O)cc1O [2,4-Dihydroxybenzophenone]
concentration in plasma [23]: 465 ng/mL
concentration in plasma [24]: 297 ng/mL
concentration in plasma [25]: 262 ng/mL
concentration in plasma [26]: 567 ng/mL
concentration in plasma [27]: 343 ng/mL
concentration in plasma [28]: 713 ng/mL
concentration in plasma [29]: 539 ng/mL
concentration in plasma [30]: 34.2 ng/mL
concentration in plasma [31]: 189 ng/mL
concentration in plasma [32]: 131 ng/mL
concentration in plasma [33]: 881 ng/mL
concentration in plasma [34]: 200 ng/mL
concentration in plasma [35]: 7.99 ng/mL
concentration in plasma [36]: 3780 ng/mL
concentration in plasma [37]: 269 ng/mL
